Assay results taken from the supplement of paper PMC8728848.
Some of the results follow.

Key:
Assay in all cases: glycan array binding signal (z-score within array); higher = stronger binding
Settings in all cases: glycan notation: IUPAC condensed, linker removed
[1] = target: Man(a1-2)Man(a1-3)[Man(a1-2)Man(a1-6)]Man(a1-6)[Man(a1-2)Man(a1-2)Man(a1-3)]Man(b1-4)GlcNAc(b1-4)GlcNAc
How it was run: (§1)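 Arrays were curated from the Consortium for Functional Glycomics database, 3228 in total, and kept only where the protein sequence was available. Binding is expressed as a within-array Z-score. This score was averaged across arrays of the same protein sequence at different concentrations or buffers and across linkers, and negative values can be read as non-binding.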

[2] = target: Man(a1-2)Man(a1-3)[Man(a1-6)]Man(a1-6)[Man(a1-2)Man(a1-3)]Man(b1-4)GlcNAc(b1-4)GlcNAc
How it was run: as §1

[3] = target: Man(a1-2)Man(a1-6)[Man(a1-3)]Man(a1-6)[Man(a1-2)Man(a1-2)Man(a1-3)]Man
How it was run: as §1

[4] = target: Man(a1-2)Man(a1-6)[Man(a1-3)]Man(a1-6)[Man(a1-2)Man(a1-2)Man(a1-3)]Man(b1-4)GlcNAc(b1-4)GlcNAc
How it was run: as §1

Man(a1-3)[Man(a1-6)]Man = target: Man(a1-3)[Man(a1-6)]Man
How it was run: as §1

[5] = target: Man(a1-3)[Man(a1-6)]Man(a1-6)[Man(a1-2)Man(a1-3)]Man(b1-4)GlcNAc(b1-4)GlcNAc
How it was run: as §1

[6] = target: Man(a1-3)[Man(a1-6)]Man(a1-6)[Man(a1-3)]Man
How it was run: as §1

[7] = target: Man(a1-3)[Man(a1-6)]Man(a1-6)[Man(a1-3)]Man(b1-4)GlcNAc(b1-4)GlcNAc
How it was run: as §1

[8] = target: Man(a1-3)[Man(a1-6)]Man(b1-4)GlcNAc(b1-4)GlcNAc
How it was run: as §1

[9] = target: Man(a1-3)[Man(a1-6)]Man(b1-4)GlcNAc(b1-4)[Fuc(a1-6)]GlcNAc
How it was run: as §1

Man(a1-6)Man = target: Man(a1-6)Man
How it was run: as §1

Man(b1-4)GlcNAc = target: Man(b1-4)GlcNAc
How it was run: as §1

Neu5Ac(a2-3)Gal = target: Neu5Ac(a2-3)Gal
How it was run: as §1

[10] = target: Neu5Ac(a2-3)Gal(b1-3)GalNAc
How it was run: as §1

[11] = target: Neu5Ac(a2-3)Gal(b1-3)GalNAc(b1-3)Gal(a1-4)Gal(b1-4)Glc
How it was run: as §1

[12] = target: Neu5Ac(a2-3)Gal(b1-3)GalNAc(b1-4)[Neu5Ac(a2-3)]Gal(b1-4)Glc
How it was run: as §1

[13] = target: Neu5Ac(a2-3)Gal(b1-3)GalNAc(b1-4)[Neu5Ac(a2-8)Neu5Ac(a2-3)]Gal(b1-4)Glc
How it was run: as §1

[14] = target: Neu5Ac(a2-3)Gal(b1-3)GalNAc6S
How it was run: as §1

[15] = target: Neu5Ac(a2-3)Gal(b1-3)GlcNAc
How it was run: as §1

[16] = target: Neu5Ac(a2-3)Gal(b1-3)GlcNAc(b1-2)Man(a1-3)[GlcNAc(b1-4)][Neu5Ac(a2-3)Gal(b1-3)GlcNAc(b1-2)Man(a1-6)]Man(b1-4)GlcNAc(b1-4)GlcNAc
How it was run: as §1

[17] = target: Neu5Ac(a2-3)Gal(b1-3)GlcNAc(b1-3)Gal(b1-3)GlcNAc
How it was run: as §1

[18] = target: Neu5Ac(a2-3)Gal(b1-3)GlcNAc(b1-3)Gal(b1-4)GlcNAc
How it was run: as §1

[19] = target: Neu5Ac(a2-3)Gal(b1-3)GlcNAc(b1-3)GalNAc
How it was run: as §1

[20] = target: Neu5Ac(a2-3)Gal(b1-3)GlcNAc(b1-6)GalNAc
How it was run: as §1

[21] = target: Neu5Ac(a2-3)Gal(b1-3)GlcNAc6S
How it was run: as §1

[22] = target: Neu5Ac(a2-3)Gal(b1-3)[Fuc(a1-4)]GlcNAc
How it was run: as §1

[23] = target: Neu5Ac(a2-3)Gal(b1-3)[Fuc(a1-4)]GlcNAc(b1-3)Gal(b1-3)[Fuc(a1-4)]GlcNAc
How it was run: as §1

[24] = target: Neu5Ac(a2-3)Gal(b1-3)[Fuc(a1-4)]GlcNAc(b1-3)Gal(b1-4)[Fuc(a1-3)]GlcNAc
How it was run: as §1

[25] = target: Neu5Ac(a2-3)Gal(b1-3)[Neu5Ac(a2-3)Gal(b1-4)]GlcNAc
How it was run: as §1

[26] = target: Neu5Ac(a2-3)Gal(b1-3)[Neu5Ac(a2-6)]GalNAc
How it was run: as §1

[27] = target: Neu5Ac(a2-3)Gal(b1-3)[Neu5Ac(a2-6)]GlcNAc(b1-3)[Fuc(a1-3)[Gal(b1-4)]GlcNAc(b1-6)]Gal(b1-4)Glc
How it was run: as §1

Neu5Ac(a2-3)Gal(b1-4)Glc = target: Neu5Ac(a2-3)Gal(b1-4)Glc
How it was run: as §1

[28] = target: Neu5Ac(a2-3)Gal(b1-4)GlcNAc
How it was run: as §1

[29] = target: Neu5Ac(a2-3)Gal(b1-4)GlcNAc(b1-2)Man
How it was run: as §1

[30] = target: Neu5Ac(a2-3)Gal(b1-4)GlcNAc(b1-2)Man(a1-3)[GlcNAc(b1-2)Man(b1-4)GlcNAc(b1-2)Man(a1-6)]Man(b1-4)GlcNAc(b1-4)GlcNAc
How it was run: as §1

[31] = target: Neu5Ac(a2-3)Gal(b1-4)GlcNAc(b1-2)Man(a1-3)[Neu5Ac(a2-3)Gal(b1-4)GlcNAc(b1-2)Man(a1-6)]Man(b1-4)GlcNAc(b1-4)[Fuc(a1-6)]GlcNAc
How it was run: as §1

[32] = target: Neu5Ac(a2-3)Gal(b1-4)GlcNAc(b1-2)Man(a1-3)[Neu5Ac(a2-6)Gal(b1-4)GlcNAc(b1-2)Man(a1-6)]Man(b1-4)GlcNAc(b1-4)GlcNAc
How it was run: as §1

[33] = target: Neu5Ac(a2-3)Gal(b1-4)GlcNAc(b1-2)[Neu5Ac(a2-3)Gal(b1-4)GlcNAc(b1-6)]Man(a1-6)[Neu5Ac(a2-3)Gal(b1-4)GlcNAc(b1-2)Man(a1-3)]Man(b1-4)GlcNAc(b1-4)GlcNAc
How it was run: as §1

[34] = target: Neu5Ac(a2-3)Gal(b1-4)GlcNAc(b1-3)Gal
How it was run: as §1

[35] = target: Neu5Ac(a2-3)Gal(b1-4)GlcNAc(b1-3)Gal(b1-3)GlcNAc
How it was run: as §1

[36] = target: Neu5Ac(a2-3)Gal(b1-4)GlcNAc(b1-3)Gal(b1-4)GlcNAc
How it was run: as §1

[37] = target: Neu5Ac(a2-3)Gal(b1-4)GlcNAc(b1-3)Gal(b1-4)GlcNAc(b1-3)Gal(b1-4)GlcNAc
How it was run: as §1

[38] = target: Neu5Ac(a2-3)Gal(b1-4)GlcNAc(b1-3)Gal(b1-4)[Fuc(a1-3)]GlcNAc
How it was run: as §1

[39] = target: Neu5Ac(a2-3)Gal(b1-4)GlcNAc(b1-3)GalNAc
How it was run: as §1

[40] = target: Neu5Ac(a2-3)Gal(b1-4)GlcNAc(b1-3)[Neu5Ac(a2-3)Gal(b1-4)GlcNAc(b1-6)]GalNAc
How it was run: as §1

[41] = target: Neu5Ac(a2-3)Gal(b1-4)GlcNAc(b1-6)GalNAc
How it was run: as §1

[42] = target: Neu5Ac(a2-3)Gal(b1-4)GlcNAc(b1-6)[Gal(b1-3)]GalNAc
How it was run: as §1

[43] = target: Neu5Ac(a2-3)Gal(b1-4)GlcNAc(b1-6)[Neu5Ac(a2-3)Gal(b1-3)]GalNAc
How it was run: as §1

[44] = target: Neu5Ac(a2-3)Gal(b1-4)GlcNAc6S
How it was run: as §1

[45] = target: Neu5Ac(a2-3)Gal(b1-4)[Fuc(a1-3)]GlcNAc
How it was run: as §1

[46] = target: Neu5Ac(a2-3)Gal(b1-4)[Fuc(a1-3)]GlcNAc(b1-3)Gal
How it was run: as §1

[47] = target: Neu5Ac(a2-3)Gal(b1-4)[Fuc(a1-3)]GlcNAc(b1-3)Gal(b1-4)GlcNAc
How it was run: as §1

[48] = target: Neu5Ac(a2-3)Gal(b1-4)[Fuc(a1-3)]GlcNAc(b1-3)Gal(b1-4)[Fuc(a1-3)]GlcNAc(b1-3)Gal(b1-4)[Fuc(a1-3)]GlcNAc
How it was run: as §1

[49] = target: Neu5Ac(a2-3)Gal(b1-4)[Fuc(a1-3)]GlcNAc(b1-3)GalNAc
How it was run: as §1

[50] = target: Neu5Ac(a2-3)Gal(b1-4)[Fuc(a1-3)]GlcNAc(b1-6)[Gal(b1-3)]GalNAc
How it was run: as §1

[51] = target: Neu5Ac(a2-3)Gal(b1-4)[Fuc(a1-3)]GlcNAc6S
How it was run: as §1

[52] = target: Neu5Ac(a2-3)Gal6S(b1-4)GlcNAc
How it was run: as §1

B1: CvGal1 (Crassostrea virginica), A7Y0I5 (protein)
chain: MTYQISKISQPFTSYIPNGLHIGKHLLLRGRVSYGTEAFAINLQQNPEPCNGEVAFHFNPRPGEQQCVRNSFDGGSWMDEERDQPHFPFDEGRSFTLRIEVAEEGFRTYVNGKPYVNFSHRLDLGNVHYLYLTEGAEFYDISYQDRYTLPYKSEIPQQMNVGKAVRIRGASQDNDGFSVNFACDPDNENCAFHFNPRPNEGVVVRNANLGGWGDEERDYEAEFPFHPYNYFDAMFICTDDKYLVHVNDKYFTEFNHRGGVDASSFFNIVGNLDIQDVEYFEPLEDDFVKTIPSGLVKGDVLIFRGFMKPGGDTFSINFMNGYSVEDDIAFHLNPRVGEGQVVMNCCMGGAWGDEEREDIPSPLADREPFEVKVVVKKNKFKVYVNGKKCMKFAARGNLEDIKGVNIKGEAYVYEVKLERKLEDSWEYLPGGFRVGGWVVVQAIPKKGSEGFAINFRTGSDEDSDIAFHFNPRLQENCTIRNSCAGGAWGGEERDQPDFPFEKKDTCEIAIQAQPDRFVTYVNGKRYIEFNHRLPLESITCVELTGRADFFEPKFF
[1]
  glycan array binding signal (z-score): -0.279
[2]
  glycan array binding signal (z-score): -0.306
[3]
  glycan array binding signal (z-score): -0.259
[4]
  glycan array binding signal (z-score): -0.268
Man(a1-3)[Man(a1-6)]Man
  glycan array binding signal (z-score): -0.231
[5]
  glycan array binding signal (z-score): -0.265
[6]
  glycan array binding signal (z-score): -0.256
[7]
  glycan array binding signal (z-score): -0.285
[8]
  glycan array binding signal (z-score): -0.294
[9]
  glycan array binding signal (z-score): -0.251
Man(a1-6)Man
  glycan array binding signal (z-score): -0.282
Man(b1-4)GlcNAc
  glycan array binding signal (z-score): -0.291
Neu5Ac(a2-3)Gal
  glycan array binding signal (z-score): -0.288
[10]
  glycan array binding signal (z-score): -0.265
[11]
  glycan array binding signal (z-score): -0.271
[12]
  glycan array binding signal (z-score): -0.286
[13]
  glycan array binding signal (z-score): -0.228
[14]
  glycan array binding signal (z-score): -0.252
[15]
  glycan array binding signal (z-score): -0.268
[16]
  glycan array binding signal (z-score): -0.277
[17]
  glycan array binding signal (z-score): -0.23
[18]
  glycan array binding signal (z-score): -0.264
[19]
  glycan array binding signal (z-score): -0.268
[20]
  glycan array binding signal (z-score): -0.21
[21]
  glycan array binding signal (z-score): -0.297
[22]
  glycan array binding signal (z-score): -0.29
[23]
  glycan array binding signal (z-score): -0.301
[24]
  glycan array binding signal (z-score): -0.269
[25]
  glycan array binding signal (z-score): -0.253
[26]
  glycan array binding signal (z-score): -0.261
[27]
  glycan array binding signal (z-score): -0.203
Neu5Ac(a2-3)Gal(b1-4)Glc
  glycan array binding signal (z-score): -0.242
[28]
  glycan array binding signal (z-score): -0.218
[29]
  glycan array binding signal (z-score): -0.245
[30]
  glycan array binding signal (z-score): -0.225
[31]
  glycan array binding signal (z-score): -0.198
[32]
  glycan array binding signal (z-score): -0.244
[33]
  glycan array binding signal (z-score): -0.283
[34]
  glycan array binding signal (z-score): -0.237
[35]
  glycan array binding signal (z-score): -0.269
[36]
  glycan array binding signal (z-score): -0.269
[37]
  glycan array binding signal (z-score): -0.279
[38]
  glycan array binding signal (z-score): -0.285
[39]
  glycan array binding signal (z-score): -0.237
[40]
  glycan array binding signal (z-score): -0.281
[41]
  glycan array binding signal (z-score): -0.283
[42]
  glycan array binding signal (z-score): -0.281
[43]
  glycan array binding signal (z-score): -0.262
[44]
  glycan array binding signal (z-score): -0.265
[45]
  glycan array binding signal (z-score): -0.282
[46]
  glycan array binding signal (z-score): -0.246
[47]
  glycan array binding signal (z-score): -0.226
[48]
  glycan array binding signal (z-score): -0.271
[49]
  glycan array binding signal (z-score): -0.166
[50]
  glycan array binding signal (z-score): -0.255
[51]
  glycan array binding signal (z-score): -0.289
[52]
  glycan array binding signal (z-score): -0.288
